Laboratory results as given in the supplement of paper PMC8728848.
Some of the results follow.

Key:
Assay in all cases: glycan array binding signal (z-score within array); higher = stronger binding
Details in all cases: glycan notation: IUPAC condensed, linker removed
[1] = target: Gal(b1-3)GlcNAc(b1-2)Man(a1-3)[Gal(b1-3)GlcNAc(b1-2)Man(a1-6)]Man(b1-4)GlcNAc(b1-4)[Fuc(a1-6)]GlcNAc
Method in brief: (§1)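 The binding signal is a Z-score computed within each array and averaged over linkers. Arrays of the same protein sequence at different concentrations or buffers were also averaged together. Data originate from 3228 arrays in the Consortium for Functional Glycomics database, kept only where the protein sequence was available.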

[2] = target: Gal(b1-3)GlcNAc(b1-2)Man(a1-3)[GlcNAc(b1-4)][Gal(b1-3)GlcNAc(b1-2)Man(a1-6)]Man(b1-4)GlcNAc(b1-4)GlcNAc
Method in brief: as §1

[3] = target: Gal(b1-3)GlcNAc(b1-2)[Gal(b1-3)GlcNAc(b1-6)]Man(a1-6)[Gal(b1-3)GlcNAc(b1-2)Man(a1-3)]Man(b1-4)GlcNAc(b1-4)GlcNAc
Method in brief: as §1

[4] = target: Gal(b1-3)GlcNAc(b1-3)Gal(b1-3)GlcNAc
Method in brief: as §1

[5] = target: Gal(b1-3)GlcNAc(b1-3)Gal(b1-4)Glc
Method in brief: as §1

[6] = target: Gal(b1-3)GlcNAc(b1-3)Gal(b1-4)GlcNAc
Method in brief: as §1

[7] = target: Gal(b1-3)GlcNAc(b1-3)Gal(b1-4)GlcNAc(b1-2)Man(a1-3)[Gal(b1-3)GlcNAc(b1-3)Gal(b1-4)GlcNAc(b1-2)Man(a1-6)]Man(b1-4)GlcNAc(b1-4)GlcNAc
Method in brief: as §1

[8] = target: Gal(b1-3)GlcNAc(b1-3)Gal(b1-4)GlcNAc(b1-2)[Gal(b1-3)GlcNAc(b1-3)Gal(b1-4)GlcNAc(b1-6)]Man(a1-6)[Gal(b1-3)GlcNAc(b1-3)Gal(b1-4)GlcNAc(b1-2)Man(a1-3)]Man(b1-4)GlcNAc(b1-4)[Fuc(a1-6)]GlcNAc
Method in brief: as §1

[9] = target: Gal(b1-3)GlcNAc(b1-3)Gal(b1-4)GlcNAc(b1-3)Gal(b1-4)GlcNAc(b1-2)[Gal(b1-3)GlcNAc(b1-3)Gal(b1-4)GlcNAc(b1-3)Gal(b1-4)GlcNAc(b1-6)]Man(a1-6)[Gal(b1-3)GlcNAc(b1-3)Gal(b1-4)GlcNAc(b1-3)Gal(b1-4)GlcNAc(b1-2)Man(a1-3)]Man(b1-4)GlcNAc(b1-4)[Fuc(a1-6)]GlcNAc
Method in brief: as §1

[10] = target: Gal(b1-3)GlcNAc(b1-3)Gal(b1-4)GlcNAc(b1-6)[Gal(b1-3)GlcNAc(b1-3)]Gal(b1-4)Glc
Method in brief: as §1

[11] = target: Gal(b1-3)GlcNAc(b1-3)Gal(b1-4)[Fuc(a1-3)]GlcNAc
Method in brief: as §1

[12] = target: Gal(b1-3)GlcNAc(b1-3)Gal(b1-4)[Fuc(a1-3)]GlcNAc(b1-6)[Gal(b1-3)GlcNAc(b1-3)]Gal(b1-4)Glc
Method in brief: as §1

[13] = target: Gal(b1-3)GlcNAc(b1-3)GalNAc
Method in brief: as §1

[14] = target: Gal(b1-3)GlcNAc(b1-6)Gal(b1-4)GlcNAc
Method in brief: as §1

[15] = target: Gal(b1-3)GlcNAc(b1-6)GalNAc
Method in brief: as §1

[16] = target: Gal(b1-3)GlcNAc(b1-6)[Gal(b1-3)]GalNAc
Method in brief: as §1

Gal(b1-3)GlcNAc6S = target: Gal(b1-3)GlcNAc6S
Method in brief: as §1

[17] = target: Gal(b1-3)[Fuc(a1-4)]GlcNAc
Method in brief: as §1

[18] = target: Gal(b1-3)[Fuc(a1-4)]GlcNAc(b1-2)Man
Method in brief: as §1

[19] = target: Gal(b1-3)[Fuc(a1-4)]GlcNAc(b1-2)Man(a1-3)[Gal(b1-3)[Fuc(a1-4)]GlcNAc(b1-2)Man(a1-6)]Man(b1-4)GlcNAc(b1-4)[Fuc(a1-6)]GlcNAc
Method in brief: as §1

[20] = target: Gal(b1-3)[Fuc(a1-4)]GlcNAc(b1-3)Gal(b1-3)[Fuc(a1-4)]GlcNAc
Method in brief: as §1

[21] = target: Gal(b1-3)[Fuc(a1-4)]GlcNAc(b1-3)Gal(b1-4)[Fuc(a1-3)]GlcNAc
Method in brief: as §1

[22] = target: Gal(b1-3)[Fuc(a1-4)]GlcNAc(b1-6)GalNAc
Method in brief: as §1

[23] = target: Gal(b1-3)[GlcNAc(b1-6)]GalNAc
Method in brief: as §1

[24] = target: Gal(b1-3)[Neu5Ac(a2-6)]GalNAc
Method in brief: as §1

[25] = target: Gal(b1-3)[Neu5Ac(a2-6)]GlcNAc(b1-4)Gal(b1-4)Glc
Method in brief: as §1

[26] = target: Gal(b1-3)[Neu5Ac(b2-6)]GalNAc
Method in brief: as §1

Gal(b1-4)Gal = target: Gal(b1-4)Gal
Method in brief: as §1

[27] = target: Gal(b1-4)GalNAc(a1-3)[Fuc(a1-2)]Gal(b1-4)GlcNAc
Method in brief: as §1

[28] = target: Gal(b1-4)GalNAc(b1-3)[Fuc(a1-2)]Gal(b1-4)GlcNAc
Method in brief: as §1

Gal(b1-4)Glc = target: Gal(b1-4)Glc
Method in brief: as §1

Gal(b1-4)Glc6S = target: Gal(b1-4)Glc6S
Method in brief: as §1

Gal(b1-4)GlcNAc = target: Gal(b1-4)GlcNAc
Method in brief: as §1

[29] = target: Gal(b1-4)GlcNAc(a1-6)Gal(b1-4)GlcNAc
Method in brief: as §1

Gal(b1-4)GlcNAc(b1-2)Man = target: Gal(b1-4)GlcNAc(b1-2)Man
Method in brief: as §1

[30] = target: Gal(b1-4)GlcNAc(b1-2)Man(a1-3)Man(b1-4)GlcNAc(b1-4)GlcNAc
Method in brief: as §1

[31] = target: Gal(b1-4)GlcNAc(b1-2)Man(a1-3)[Gal(b1-4)GlcNAc(b1-2)Man(a1-6)]Man(b1-4)GlcNAc(b1-4)GlcNAc
Method in brief: as §1

[32] = target: Gal(b1-4)GlcNAc(b1-2)Man(a1-3)[Gal(b1-4)GlcNAc(b1-2)Man(a1-6)]Man(b1-4)GlcNAc(b1-4)[Fuc(a1-6)]GlcNAc
Method in brief: as §1

[33] = target: Gal(b1-4)GlcNAc(b1-2)Man(a1-3)[Gal(b1-4)GlcNAc(b1-2)Man(a1-6)][Gal(b1-4)GlcNAc(b1-4)]Man(b1-4)GlcNAc(b1-4)[Fuc(a1-6)]GlcNAc
Method in brief: as §1

[34] = target: Gal(b1-4)GlcNAc(b1-2)Man(a1-3)[Gal(b1-4)GlcNAc(b1-2)Man(a1-6)][GlcNAc(b1-4)]Man(b1-4)GlcNAc(b1-4)[Fuc(a1-6)]GlcNAc
Method in brief: as §1

[35] = target: Gal(b1-4)GlcNAc(b1-2)Man(a1-3)[GlcNAc(b1-2)Man(a1-6)]Man(b1-4)GlcNAc(b1-4)GlcNAc
Method in brief: as §1

[36] = target: Gal(b1-4)GlcNAc(b1-2)Man(a1-3)[GlcNAc(b1-4)][Gal(b1-4)GlcNAc(b1-2)Man(a1-6)]Man(b1-4)GlcNAc(b1-4)GlcNAc
Method in brief: as §1

[37] = target: Gal(b1-4)GlcNAc(b1-2)Man(a1-3)[Man(a1-6)]Man(b1-4)GlcNAc(b1-4)GlcNAc
Method in brief: as §1

[38] = target: Gal(b1-4)GlcNAc(b1-2)Man(a1-6)Man(b1-4)GlcNAc(b1-4)GlcNAc
Method in brief: as §1

[39] = target: Gal(b1-4)GlcNAc(b1-2)Man(a1-6)[GlcNAc(b1-2)Man(a1-3)]Man(b1-4)GlcNAc(b1-4)GlcNAc
Method in brief: as §1

B1: HPL (Tachypleus tridentatus) (protein)
chain: MEDDCTCVTDRSLEGKLMKHPSTPAVYQILDGCRRLVPNPPTYNNIYKNWECIQSNILEKLLCKCDSLSNGAELIKGSGDTVYLLSNGVKRPIADPETFNGFCFDWNKIKTYSDIVINSLSTGPIIIIKHHHHHH
glycan array binding signal (z-score) [1]: 0.727 | glycan array binding signal (z-score) [2]: 0.599 | glycan array binding signal (z-score) [3]: -0.169 | glycan array binding signal (z-score) [4]: 0.732 | glycan array binding signal (z-score) [5]: -0.059 | glycan array binding signal (z-score) [6]: 0.01 | glycan array binding signal (z-score) [7]: 0.362 | glycan array binding signal (z-score) [8]: 0.189 | glycan array binding signal (z-score) [9]: 0.382 | glycan array binding signal (z-score) [10]: -0.248 | glycan array binding signal (z-score) [11]: -0.309 | glycan array binding signal (z-score) [12]: -0.372 | glycan array binding signal (z-score) [13]: -0.36 | glycan array binding signal (z-score) [14]: -0.403 | glycan array binding signal (z-score) [15]: -0.329 | glycan array binding signal (z-score) [16]: -0.084 | glycan array binding signal (z-score) (Gal(b1-3)GlcNAc6S): -0.377 | glycan array binding signal (z-score) [17]: -0.223 | glycan array binding signal (z-score) [18]: 1.71 | glycan array binding signal (z-score) [19]: -0.28 | glycan array binding signal (z-score) [20]: -0.131 | glycan array binding signal (z-score) [21]: -0.097 | glycan array binding signal (z-score) [22]: -0.093 | glycan array binding signal (z-score) [23]: 0.017 | glycan array binding signal (z-score) [24]: 0.986 | glycan array binding signal (z-score) [25]: -0.337 | glycan array binding signal (z-score) [26]: -0.356 | glycan array binding signal (z-score) (Gal(b1-4)Gal): -0.234 | glycan array binding signal (z-score) [27]: -0.198 | glycan array binding signal (z-score) [28]: -0.315 | glycan array binding signal (z-score) (Gal(b1-4)Glc): 0.479 | glycan array binding signal (z-score) (Gal(b1-4)Glc6S): 0.015 | glycan array binding signal (z-score) (Gal(b1-4)GlcNAc): -0.311 | glycan array binding signal (z-score) [29]: -0.342 | glycan array binding signal (z-score) (Gal(b1-4)GlcNAc(b1-2)Man): 0.347 | glycan array binding signal (z-score) [30]: 0.037 | glycan array binding signal (z-score) [31]: -0.199 | glycan array binding signal (z-score) [32]: 0.264 | glycan array binding signal (z-score) [33]: -0.344 | glycan array binding signal (z-score) [34]: -0.355 | glycan array binding signal (z-score) [35]: -0.178 | glycan array binding signal (z-score) [36]: -0.083 | glycan array binding signal (z-score) [37]: 0.429 | glycan array binding signal (z-score) [38]: 0.251 | glycan array binding signal (z-score) [39]: 0.08
